According to PMC8713996, “An anti-tuberculosis compound screen using a zebrafish infection model identifies an aspartyl-tRNA synthetase inhibitor” (Disease Models & Mechanisms, 2021):

Tested on: S. pneumoniae
Details: Table S1; strain used for zebrafish infection (D39V)

With penicillin the “MIC90 S. pneumoniae” value was 0.04 µM.
